Laboratory results taken from PMC4336329 (PLoS ONE, 2015).
The whole screen tested about 310,000 compounds, of which about 2,200 (0.71%) showed an effect of 50% or more. Effects have a minus sign here. The list shows a part of the results.

The molecules below were run against human ether-à-go-go-related gene (hERG) potassium channel (human, UniProt Q12809) (assay: primary screen, population patch clamp on CHO cells stably expressing hERG).
Sequence of human ether-à-go-go-related gene (hERG) potassium channel (Q12809 whole entry, looked up): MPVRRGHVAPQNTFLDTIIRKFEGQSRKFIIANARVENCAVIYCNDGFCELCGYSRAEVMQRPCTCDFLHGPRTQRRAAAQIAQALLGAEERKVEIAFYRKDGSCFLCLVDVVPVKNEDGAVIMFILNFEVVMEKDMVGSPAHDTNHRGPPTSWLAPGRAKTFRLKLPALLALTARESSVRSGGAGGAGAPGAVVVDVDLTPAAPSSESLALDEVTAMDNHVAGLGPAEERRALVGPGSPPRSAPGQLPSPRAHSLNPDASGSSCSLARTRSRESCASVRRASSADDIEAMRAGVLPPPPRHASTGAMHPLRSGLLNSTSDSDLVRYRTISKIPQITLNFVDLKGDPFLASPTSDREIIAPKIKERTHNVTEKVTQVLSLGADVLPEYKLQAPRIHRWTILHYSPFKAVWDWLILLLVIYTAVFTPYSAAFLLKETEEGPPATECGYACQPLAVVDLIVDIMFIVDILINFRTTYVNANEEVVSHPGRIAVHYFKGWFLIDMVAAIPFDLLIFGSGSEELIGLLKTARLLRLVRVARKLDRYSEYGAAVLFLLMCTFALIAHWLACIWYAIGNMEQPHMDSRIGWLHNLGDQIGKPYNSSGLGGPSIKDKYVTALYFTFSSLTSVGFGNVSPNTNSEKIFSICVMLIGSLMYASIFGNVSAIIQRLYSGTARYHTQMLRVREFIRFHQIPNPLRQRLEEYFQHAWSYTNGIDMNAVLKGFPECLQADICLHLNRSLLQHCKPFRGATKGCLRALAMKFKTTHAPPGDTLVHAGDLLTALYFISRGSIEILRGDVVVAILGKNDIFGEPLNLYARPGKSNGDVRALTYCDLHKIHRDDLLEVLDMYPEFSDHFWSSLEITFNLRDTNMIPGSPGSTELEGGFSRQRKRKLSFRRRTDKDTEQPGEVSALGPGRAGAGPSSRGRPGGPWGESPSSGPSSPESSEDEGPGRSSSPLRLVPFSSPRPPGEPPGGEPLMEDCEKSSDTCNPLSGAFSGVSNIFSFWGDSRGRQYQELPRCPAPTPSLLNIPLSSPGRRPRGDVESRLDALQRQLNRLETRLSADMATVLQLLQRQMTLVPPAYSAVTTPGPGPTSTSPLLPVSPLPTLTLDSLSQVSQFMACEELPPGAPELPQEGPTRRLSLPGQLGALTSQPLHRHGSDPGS

| SMILES | hERG current change (%, negative = inhibition) at 1uM [%] |
| --- | --- |
| COC(=O)/C=c1\sc2n(c1=O)C(C)=CC(C)(C)N=2 | 10.8 |
| CC(=O)c1cccc(NC(=O)c2onc(C)c2Cl)c1 | 11.9 |
| N#Cc1cc(-c2ccccc2)nc(NN)n1 | 7.92 |
| CCc1ccc(NC(=S)Nc2ccc3[nH]c(=O)[nH]c3c2)cc1 | 13.1 |
| CC(=O)Nc1ccc(Br)cc1C(=O)C(=O)O | 6.06 |
| Cc1[nH]c(=S)[nH]c(=O)c1CCC1OCCO1 | 6.66 |
| CCOc1ccc(C(=O)Nc2ccc(NC(=O)c3ccco3)c(Cl)c2)cc1Br | 13.2 |
| CN(CC(=O)Nc1cccc(F)c1)C(=O)/C=C/c1cn(Cc2ccccc2)nc1-c1cccnc1 | 4.79 |
| CCOC(=O)C1=C(COC(=O)c2ccc(OC(C)C)cc2)NC(=O)NC1C (stereo not drawn) | 17.4 |
| O=C(Cn1cnc2c(cnn2-c2ccc(F)cc2)c1=O)N1CCN(c2ccccc2F)CC1 | -12.4 |
| S=c1[nH]nc(/C=C/c2ccccc2)o1 | 17.2 |
| Cc1ccc(C(=O)Nc2nnc(C3CCCCC3)s2)o1 | 12.8 |
| CC(=O)Nc1ccc(NC(=O)C2CC(=O)Nc3nc4ccccc4n32)cc1 (stereo not drawn) | 15.6 |
| Cc1nn(Cc2ccccc2)c(C)c1NC(=O)CSc1nnc(-c2cc(Cl)ccc2O)n1C | 9.67 |
| COc1ccc(Cl)cc1NS(=O)(=O)c1cccc(C(=O)N2CC(C)OC(C)C2)c1 (stereo not drawn) | 4.46 |
| Cc1cc(OCC(=O)Nc2ccc(CN3CCOCC3)cc2)c2c(C)c(C)c(=O)oc2c1 | 17.7 |
| Cc1cc(C)cc(NC(=O)C(=O)NCCc2c[nH]c3ccccc23)c1 | 12.2 |
| C=CCn1c(COc2ccc(Cl)cc2)nnc1SCC(=O)N/N=C/c1ccccc1 | 3.45 |
| COc1cccc(NC(=O)CN(C)C(=O)CCCc2nc3ccccc3s2)c1 | 4.25 |

| SMILES | hERG current change (%, negative = inhibition) at 1uM [%] |
| --- | --- |
| Cc1ccc(NC(=O)c2cc(-c3ccccc3)nn2-c2ccccc2)cc1 | 13.7 |
| CC(C)(C)c1nc2ccccc2c(=O)n1N1C(=O)c2ccccc2C1=O | 11.7 |
| Cc1cc2ccccc2n1CCNC(=O)c1ccc(S(=O)(=O)N2CCCCC2)cc1 | 14.8 |
| CCC[C@@H]1CCCO[C@@](C(=O)NCc2ccccn2)(C(F)(F)F)C1 | 17.2 |
| CCc1nn(CC(=O)N2CCN(CC)CC2)c(=O)c2cc3sccc3n12 | 9.14 |
| COc1ccc(CCNC(=O)Cc2c(Cl)cccc2Cl)cc1 | 2.42 |
| Cc1ccc(SCCC(=O)Nc2cccc(N(C)S(C)(=O)=O)c2)cc1 | 1.09 |
| Cl.Fc1ccccc1C(c1nnnn1C1CCCC1)N1CCN(Cc2ccccc2)CC1 (stereo not drawn) | 12.9 |
| Cl.OC(c1ccccc1)C(CN1CCOCC1)c1ccccc1 (stereo not drawn) | 4.4 |
| COc1cc(C(=O)NCc2ccc(OCCN(C)C)cc2)cc(OC)c1OC.Cl | 14.2 |
| O=C(NC(=S)Nc1c(Cl)ccc2nsnc12)c1ccccc1F | 12.2 |
| CCn1ncc(S(=O)(=O)Nc2cccnc2)c1C | 5.96 |
| COc1ccc(Cl)cc1NC(=O)Cn1nc(-c2ccc(C)cc2)n(C)c1=S | 1.97 |
| O=C(O)CCS(=O)(=O)Cc1ccccc1F | 13.3 |
| C[C@H](NC(=O)OC(C)(C)C)c1nnc(SCC(=O)Nc2ccc(Br)cc2)o1 | 6.61 |
| Cc1cc(=O)oc2cc(OCCC[n+]3ccccc3)ccc12.[Br-] | 8.16 |
| CCn1cc(CN2CCCC(CNS(=O)(=O)c3cccc4cccnc34)C2)cn1 (stereo not drawn) | 14.7 |
| COc1ccc(-c2cn[nH]c2-c2ccc(OC)cc2O)cc1 | -0.931 |
| O=C(C[n+]1ccccc1)Nc1ccccc1Br.[Cl-] | 18.1 |

| SMILES | hERG current change (%, negative = inhibition) at 1uM [%] |
| --- | --- |
| CCCN(CCC)c1nc2ccccc2nc1C(C#N)C(=O)OCCOC (stereo not drawn) | 5.6 |
| Cc1cc(NC(=O)CCc2ccccc2)c([N+](=O)[O-])cc1C | -0.405 |
| CN(C(=O)COc1ccc(Cl)cc1Cl)C1(C)CCS(=O)(=O)C1 (stereo not drawn) | 0.854 |
| Cc1cc(/C=C2\C(=N)N3N=C(CC(=O)N4CCOCC4)SC3=NC2=O)c(C)n1-c1ccccc1 | 7.83 |
| COc1ccc(N2CC(C(=O)Nc3ccc([N+](=O)[O-])cc3Br)CC2=O)cc1 (stereo not drawn) | -43.6 |
| CN(C)C(=S)SCC(=O)NCc1ccc(F)cc1 | 11.7 |
| COc1ccc(C2(c3ccc(OC)cc3)NC(=O)N(CC(=O)NCC(F)(F)F)C2=O)cc1 | 6.68 |
| Cc1cccc(NC(c2ccc(C)s2)c2ccc3ccc(C)nc3c2O)n1 (stereo not drawn) | 17.5 |
| Cc1ccc([N+](=O)[O-])cc1NCC(=O)NN | 3.27 |
| CCOC(=O)Cc1cc(=O)n2[nH]c(C)c(-c3ccc(Cl)cc3)c2n1 | 13 |
| Nc1nc2c3ccccc3nc(Cc3ccccc3)n2n1 | 14.2 |
| COc1ccc(C(=O)CSc2nc3c(c(=O)n(C)c(=O)n3C)n2C)cc1 | 7.22 |
| COCc1cc(C)nc(OCC(=O)N/N=C/c2ccc(-c3cccc([N+](=O)[O-])c3)o2)c1C#N | 4.04 |
| CN1CCCC(OC(=O)c2ccccc2Br)C1.Cl (stereo not drawn) | 14.3 |
| C=CCc1ccccc1Oc1cc(F)nc(N)n1 | 10.4 |
| COC(=O)c1cccc(C(=O)N2CCCC(Nc3ccc4c(c3)OCCO4)C2)c1 (stereo not drawn) | 2.38 |
| S=C(Nc1ccc(Cl)cc1Cl)NC1CCCCC1 | 9.91 |
| S=c1nc(-c2ccccc2)n(CCN2CCOCC2)c2c1CCCC2 | -4.85 |
| C/C(=N\NC(=O)CSc1ncccn1)c1ccc2c(c1)OCCO2 | 14.9 |
